From the RNAGym collection of RNA variant scans (doi:10.1093/nar/gkz1192) come the findings set out here.

The source gives no read counts; variants with many changes may rest on few reads.

B1: CPEB3 Ribozyme (parent)
chain: UAACAGGGGGCCACAGCAGAAGCGUUCACGUCGCAGCCCCUGUCAGAUUCUGGUGAAUCUGCGAAUUCUGCUGUAUAUCUC

This data set covers variants of B1. Put plainly: self-cleavage, relative activity (ratio to wild type); higher = more cleavage; in vitro, sequencing. In outline:
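After error-prone PCR and barcoding, CPEB3 ribozyme mutant libraries were transcribed with T7 RNA polymerase at 37°C for 5 hours, then given 15 min with DNase I before an EDTA stop, and they cleaved during both steps. Reverse transcription with template switching preceded Illumina sequencing. Relative activity divides a variant's cleaved/total read fraction by the unmutated ribozyme's. At least 5 reads were required per variant, and three batches were averaged.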
A18G A47G U51A U72C U78C: the self-cleavage is 0.72.
Then A18G A57G C62A U66C U69A U72C, with 0.17; and A18G C29U A65G U66C U78C, with 0.12; and A18G C38U U69A, with 0.1.
Next, A18G C32U U54A U69C: 0.08.
As to A18G A35U U49C, the self-cleavage was found to be 0.13.
Next, A18G A56G A64G: 0.1; A18G A64U U72A: 0.15.
Next, A18G A56G A64G U78C: 0.37.
Then A18G C34G U43C U60C U74C A75U, with 0.04.
On to A18G A21G G30A, for which the self-cleavage was found to be 0.59.
Then A18G A35G U54C A56U G63A, with 0.4; and A18G C23U G53C A75G, with 0.06; and A18G A35G U80G, with 1.25.
Turning to A18G A21G U31A U67A, the self-cleavage is 0.07.
Next, A18G C68A U69C U80G: 0.54; A18G A28C A35G: 0.42; A18G A35U C40G: 0.11.
On to A18G A45C U69A, for which the self-cleavage was 0.15.
Next, A18G A28U A35U: 0.09.
Next, A18G C62U U80C: 0.22.
Next, A18G A28G C37U U41A: 0.22; A18G C32G A45U A57G U67C: 0.08; A18G C44U U60A U66C: 0.25.
With A18G C38A U41C A64G U80C, the self-cleavage stood at 0.16.
Next, A18G A21G G42U U51C U54A: 0.07; A18G A28G U72A: 0.22.
Then A18G A21G U41C U80A, with 0.57; and A18G A21G A56U, with 0.35.
With A18G A21G U25A C29U U67C, the self-cleavage is 0.09.
Then A18G C23U U48C U49C A77U, with 0.04.
Consider A18G A35G A45U, for which the self-cleavage was determined as 0.21.
Next, A18G C29A G33U: 0.04.
Then A18G A45G U51G, with 0.47; and A18G A45G U51C, with 0.16; and A18G A45G U48C U76A, with 0.22.
Then A18G C29G U69C, with 0.25; and A18G A45G U60A U72A U78C, with 0.15; and A18G A45G U58C U60C, with 0.24.
Consider A18G A56G U74A U80C, for which the self-cleavage is 1.07.
Then A18G C62U U76G, with 0.35; and A18G C38A C62U U67G U69C, with 0.09; and A18G C29A U31C U51A A56G U80C, with 0.09.
Then A18G A20U U31C U43C U60C, with 0.56; and A18G A28G A35G A45U, with 0.19; and A18G A21G C44A A45G U72C U80C, with 0.44.
For A18G A35U U48C A64G U69A, the self-cleavage stood at 0.06.
For A18G C39A U41C A57G U76C U80C, the self-cleavage was 0.1.
Next, A18G A28U U54A U78A: 0.25; A18G C23U A57G: 0.1.
Next, A18G A28G A56U: 0.18; A18G A21G U41A U43A A64G: 0.06.
Regarding A18G A21G C32U U72C U78C, the self-cleavage came to 0.07.
Next, A18G A47G A56U A57G: 0.21; A18G C38U U60A: 0.19.
Next, A18G C32U G42A: 0.38.
Next, A18G A35U A45C: 0.38; A18G A20U A45G U49C: 0.25; A18G C44G U74G U76G: 0.26.
In the case of A18G A20U U26A C71A, the self-cleavage was found to be 0.08.
Then A18G G19A A45G U67A, with 0.28.
As for A18G A35U U60A U67A, the self-cleavage worked out at 0.12.
Next, A18G A28G C62U: 0.33.
Then A18G A20U A45G, with 0.07; and A18G A21G C27A U54G U60A, with 0.23.
Then A18G A45G C62G, with 0.25; and A18G A28G U31C C34U U49C U67G U74C, with 0.16; and A18G A57U A65G, with 0.21.
Regarding A18G A57U A77U, the self-cleavage is 0.31.
Consider A18G A35G U58A A77U, for which the self-cleavage came to 0.54.
Then A18G C32A U41A, with 0.24; and A18G A35U A64G U69C, with 0.38.
Turning to A18G C44A A45G, the self-cleavage came out at 0.27.
Next, A18G A28G A35G C39U U41A U78C: 0.05; A18G A57G A64U A75U: 0.26.
Next, A18G C40U G46U U48C: 0.04; A18G A21G A65G A75U U76A A77G: 0.24; A18G A21G C29U U31C U43C A56U U60C: 0.03.
Then A18G C23U C44G U51C, with 0.19; and A18G A56U C59A, with 0.12.
A18G C50U U80C: the self-cleavage worked out at 0.36.
Next, A18G A20U G61A A64U: 0.09; A18G A28G G30A: 0.42; A18G A56U U58A U78C: 0.1.
For the variant A18G C23G U25A U43A U72A A77U, the self-cleavage came to 0.05.
Next, A18G A28U G33C A56C U72A: 0.11; A18G A21U A56G U60A U78C: 0.12.
Then A18G C71A U78C, with 0.16; and A18G A21G U67A U78C, with 0.17.
Next, A18G C40A U66C: 0.15.
Take A18G A47G G70A U72C: the self-cleavage is 0.17.
In the case of A18G A35G U41G A65G U69C, the self-cleavage stood at 0.31.
Then A18G A35G U54A U67C A77C U80A, with 0.34; and A18G C23U U48C U80C, with 0.07.
Then A18G C32A U78C, with 0.08; and A18G A57G U58A A65G, with 0.17.
Then A18G A77G U80A, with 0.91; and A18G A47G U51C U67C C71U U78C U80C, with 0.23; and A18G A45C U49C U67C, with 0.1.
Regarding A18G A57G U78C, the self-cleavage was found to be 0.43.
Then A18G G19A U25A, with 0.09; and A18G A47G U69C, with 1.2.
Then A18G C39A C50G, with 0.18.
Regarding A18G C37G A45G U69A, the self-cleavage was 0.18.
As for A18G A47G U60C U72A, the self-cleavage came out at 0.08.
Then A18G A35U U76C A77C, with 0.13; and A18G A47U C71U, with 0.12; and A18G C32U C40U U76A, with 0.12.
Then A18G A28G A35G A56G, with 0.27; and A18G A28G U49A G55C U60C U72G, with 0.13.
As for A18G A21C A45U U54A A65G, the self-cleavage worked out at 0.08.
In the case of A18G A20U U26C A35G C37U U43C A77G, the self-cleavage was found to be 0.03.
Next, A18G A35G U51C U54C: 1.18; A18G A21G U72C U80C: 0.25.
Then A18G A28G A45G U51C A56G A77G U80C, with 0.33; and A18G A20U U49C A64U, with 0.13; and A18G A21G A35U U54C A75U, with 0.3.
Next, A18G A35G C37U U49C A56G A64G: 1.17.
Take A18G C37U G46U A47G U76C: the self-cleavage came out at 0.06.
Then A18G A35G U41A U69C A75U, with 0.47; and A18G A47G U49A, with 0.28; and A18G A35G U49C A56U U69G, with 0.27.
Then A18G A35G U67A, with 0.39; and A18G A21G A45U U48C U66G, with 0.16; and A18G A21G A45U A57G U60C, with 0.06.
In the case of A18G A20U G33U U43A A77G, the self-cleavage stood at 0.05.
Then A18G A47U U58C A77U, with 0.13; and A18G C37A U54C A64U A65G, with 0.06; and A18G A28C C37U U60C U78C, with 0.11.
As for A18G A64G U67C, the self-cleavage was determined as 0.4.
Then A18G A45U U60C, with 0.22.
Regarding A18G A35G U69A U72A, the self-cleavage is 0.28.
Next, A18G C37U U54C U78C: 0.22; A18G A45U U48C: 0.1.
A18G A28G U41G U78C: the self-cleavage was determined as 0.26.
Then A18G A28G A45G U72C, with 0.79; and A18G A47G C62U A64G U66C U80A, with 0.17.
Take A18G A35G U48C: the self-cleavage was determined as 0.67.
Then A18G C39A A45U A75U, with 0.2; and A18G A21G U25A U48C, with 0.31; and A18G C39U U41C U58C, with 0.1.
Next, A18G C34U U58C: 0.08.
Next, A18G A45G A77G: 0.47.
Consider A18G A45G U49G G52U U78A, for which the self-cleavage worked out at 0.17.
Then A18G C38G C44U U48C U58A U69G A75U, with 0.12.
Next, A18G A28U A35G U41A A45G U69C: 0.18; A18G C29A A56U A57G U69C U74C U80A: 0.18.
For A18G C27A C34A A35G U48C, the self-cleavage worked out at 0.04.
For the variant A18G A65G U67A A75G U80C, the self-cleavage is 0.13.
Next, A18G C39A U69C: 0.14; A18G A45G U66C: 0.17; A18G A57G G63C G70U U80A: 0.22.
Then A18G A21G U58C U69C C81G, with 0.45; and A18G A56U U78C, with 0.29; and A18G C29U U31C U41A, with 0.05.
In the case of A18G A45U A56G, the self-cleavage was determined as 0.23.
Next, A18G A28U A45U U48C U51C U72A: 0.16; A18G A28G G63A U80C: 0.23; A18G A21C A28U A35G A45G A56G A75G: 0.03.
Then A18G A21G U25A A47G U54C A64G U69C, with 0.08; and A18G A21G U26C U69A, with 0.07.
Next, A18G A28G C34U U43C U49C A77U: 0.04; A18G C38U U43C U60C: 0.21.
Turning to A18G A45U A57U C62U, the self-cleavage is 0.08.
Next, A18G A57G U60A: 0.39; A18G A21G A35G U66C: 1.16; A18G A35G U48A U58C U66C: 0.06.
